Test results from patent publication US11911477B2, “Use of fructose in preparing drug for treating ischemic injury” (Beihang University, priority 2021, dated 2024).

Assays:
[1] = test system: DIV7 neurons; assay: CellTiter-Glo Luminescent cell viability of DIV7 neurons; type: cell-based; settings: 0, 1, 2, 4, 6, 8 and 16 mM, each compared with the 0 mM group, FIG. 12
Source text: Effects of different concentrations of fructose on the viability of DIV7 neurons were studied using a CellTiter-Glo® Luminescent cell viability test kit, and an added concentration of the fructose was explored in the cell system.

[2] = test system: OGD-injured neurons; assay: Survival rate of OGD-treated neurons by MAP2 and DAPI immunofluorescence staining; settings: OGD 1.5 h, 2 mM, after 24 h, FIG. 14

## O=C(CO)[C@@H](O)[C@H](O)[C@H](O)CO [fructose]
[1]
  viability of DIV7 neurons: improvement effect on neuron viability significantly better than that of the fructose-1,6-bisphosphate and the glycerol fructose
[2]
  survival rate of neurons after OGD: has a significantly better effect than the fructose-1,6-bisphosphate
